Experimental data: paper PMC4336329 (PLoS ONE, 2015)
Out of some 310,000 compounds screened, about 2,200 (0.71%) showed an effect of 50% or more. Effects have a minus sign here. The list shows a part of the results.

Biological target: human ether-à-go-go-related gene (hERG) potassium channel (human, UniProt Q12809)
Experiment: primary screen, population patch clamp on CHO cells stably expressing hERG

Sequence of human ether-à-go-go-related gene (hERG) potassium channel (Q12809 whole entry, looked up): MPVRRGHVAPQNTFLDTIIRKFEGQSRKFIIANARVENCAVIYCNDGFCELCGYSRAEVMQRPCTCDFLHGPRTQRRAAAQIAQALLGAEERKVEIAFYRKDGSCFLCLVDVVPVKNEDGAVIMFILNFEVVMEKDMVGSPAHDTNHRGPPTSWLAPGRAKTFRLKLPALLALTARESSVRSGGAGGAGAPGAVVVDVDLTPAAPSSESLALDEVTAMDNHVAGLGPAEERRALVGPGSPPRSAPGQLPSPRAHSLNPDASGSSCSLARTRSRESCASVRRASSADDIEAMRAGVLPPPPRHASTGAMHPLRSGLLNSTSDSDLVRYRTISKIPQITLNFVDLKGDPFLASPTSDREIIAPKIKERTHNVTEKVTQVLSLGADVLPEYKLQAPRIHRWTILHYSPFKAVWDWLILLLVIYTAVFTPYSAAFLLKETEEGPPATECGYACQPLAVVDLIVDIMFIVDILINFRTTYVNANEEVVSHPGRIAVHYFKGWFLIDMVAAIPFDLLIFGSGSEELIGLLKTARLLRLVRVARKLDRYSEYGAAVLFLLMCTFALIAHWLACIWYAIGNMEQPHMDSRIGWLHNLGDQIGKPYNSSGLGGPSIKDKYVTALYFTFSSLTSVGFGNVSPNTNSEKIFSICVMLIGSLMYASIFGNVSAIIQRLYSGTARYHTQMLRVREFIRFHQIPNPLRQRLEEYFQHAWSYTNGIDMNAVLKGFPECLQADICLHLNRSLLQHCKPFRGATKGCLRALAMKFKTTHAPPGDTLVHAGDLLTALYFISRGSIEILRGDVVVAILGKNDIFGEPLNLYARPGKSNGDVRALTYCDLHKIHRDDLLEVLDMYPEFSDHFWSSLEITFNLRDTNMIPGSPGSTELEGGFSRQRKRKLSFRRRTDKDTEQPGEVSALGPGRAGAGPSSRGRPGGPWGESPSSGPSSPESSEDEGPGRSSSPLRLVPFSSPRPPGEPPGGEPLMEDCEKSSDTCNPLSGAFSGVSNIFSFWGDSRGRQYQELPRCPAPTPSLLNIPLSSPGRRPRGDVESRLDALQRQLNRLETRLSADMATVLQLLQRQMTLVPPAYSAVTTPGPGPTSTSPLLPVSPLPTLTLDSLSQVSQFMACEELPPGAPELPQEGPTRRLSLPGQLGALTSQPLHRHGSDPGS

Row | SMILES | hERG current change (%, negative = inhibition) at 1uM [%]
1 | N#CC1=C(N)SC(N)=C(C#N)C1c1ccc(C(F)(F)F)cc1 | 9.49
2 | CNC(=O)CN(c1cc([N+](=O)[O-])ccc1OC)S(C)(=O)=O | 12.7
3 | Cc1ccccc1OCCn1c(C)nc2ccccc21 | 10.5
4 | COc1ccccc1NC(=O)CSc1nc(C)c2c(c1C#N)CCCC2 | 5.89
5 | CC(=O)c1c(C)n(C)c2ccc(OC(=O)c3ccco3)cc12 | 0.829
6 | O=C(NCC1CCCO1)c1cnn2c1NC(c1ccccc1)CC2C(F)(F)F (stereo not shown) | 11
7 | O=C(NCC1CCCO1)c1ccc2c(=O)n(Cc3ccco3)c(SCC(=O)N3CCCC3)nc2c1 (stereo not shown) | -54
8 | CCOC(=O)/C(=N/O)C1=NC(C)(C)Cc2cc(C)c(C)cc21 | 11.7
9 | CCOc1ccc(N2CC(C(=O)NNC(=O)c3ccc(F)cc3)CC2=O)cc1 (stereo not shown) | 2.25
10 | O=C(NC1CCN(S(=O)(=O)c2ccccc2)CC1)c1ccc(F)cc1 | -8.42
11 | O=C(CCNS(=O)(=O)c1ccc(Br)cc1)NC1CCC(O)CC1 (stereo not shown) | 11.1
12 | Cc1ccc(Oc2ccc(C(=O)NC3CCSC3=O)cn2)cc1 (stereo not shown) | 7.31
13 | COc1ccccc1NC(=O)C(=O)N/N=C(\C)CC(=O)Nc1ccccc1C(F)(F)F | 14.4
14 | N#Cc1c(NC(=O)CN2CCOCC2)oc(-c2ccccc2)c1-c1ccccc1 | 4.87
15 | Cc1ccc(S(=O)(=O)N2CCC(N3CCCCCC3)CC2)cc1 | 7.84
16 | CCCN(CC(=O)Nc1ccccc1C)C(=O)c1ccc(=O)n(Cc2ccccc2)n1 | 14.1
17 | O=S(=O)(NCCc1ccc(Cl)cc1)c1cccs1 | 8.82
18 | CS(=O)(=O)N1CCN(c2ccccc2NC(=O)c2cccnc2Cl)CC1 | -1.51
19 | COc1ccc(N2CCN(C(=O)C3CCN(S(=O)(=O)c4c(C)noc4/C=C/N(C)C)CC3)CC2)cc1 | -2.82
20 | COc1ccc(N2CCCCn3c2nc2c3c(=O)[nH]c(=O)n2C)cc1 | 2.58
21 | O=C(/C=C/c1ccc(S(=O)(=O)N2CCOCC2)cc1)NCc1ccccc1F | 7.4
22 | O=C(NC1CCCC1)C(c1ccc(N2CCOCC2)cc1)N(Cc1ccccc1)C(=O)c1ccco1 (stereo not shown) | 11

Row | SMILES | hERG current change (%, negative = inhibition) at 1uM [%]
23 | COc1ccc(Cn2nnc3c(=O)[nH]c(C4CCN(S(=O)(=O)c5ccc(C)cc5)CC4)nc32)cc1 | 14
24 | Cc1nc(SCC(=O)O)c2oc3ccccc3c2n1 | 13.7
25 | Cc1ccc(C(=O)O)cc1NC(=O)C1=CSCCO1 | 7.35
26 | CC1CN(C(=O)CN2C(=O)NC(C)(c3ccccc3)C2=O)CC(C)O1 (stereo not shown) | 1.6
27 | N#C/C(=C/c1ccc(Oc2ccc([N+](=O)[O-])cn2)cc1)C(=O)N1CCOCC1 | 11.1
28 | CNC(=S)NCc1ccc2[nH]c3c(c2c1)CCCC3 | 4.36
29 | CC(C)(CCl)C(=O)Nc1ccc(C(F)(F)F)cc1 | 4.94
30 | Cc1ccc(-c2csc3nnc(SCC(=O)Nc4cccc(C)n4)n23)cc1 | -3.01
31 | CCOc1ccc(N2C(=O)CC(Cc3ccccc3OC)C2=O)cc1 (stereo not shown) | 2.72
32 | COc1ccc(-c2nc3ccccc3c(=O)n2NC(=O)c2cccnc2Cl)cc1OC | 11.2
33 | CC1(C)Cc2c(c(=S)nc(-c3ccccc3)n2CCOCCO)CO1 | -1.9
34 | [O-][N+]1=C2CCC/C(=N\O)C2=NC12CCCCC2 | 4.5
35 | O=C(CCNC(=O)c1ccc([N+](=O)[O-])cc1)NNC(=O)c1ccncc1 | 13.8
36 | Cc1nn(Cc2ccccc2Cl)c(C)c1NC(=O)CCCn1nc(C)c([N+](=O)[O-])c1C | 5.05
37 | Cc1nc2cc(NS(=O)(=O)c3ccc(Br)cc3)ccc2n1C | 10.8
38 | Cc1cc(=O)oc2cc(NS(=O)(=O)c3ccc(F)cc3)ccc12 | 9.03
39 | Cc1ccccc1CSCC(=O)N1CCN(c2ccccc2)CC1 | -5.67
40 | O=[N+]([O-])c1ccc(-n2nncc2-c2ccccc2)cc1 | 0.0452
41 | COc1cc(CNCCc2ccc(S(N)(=O)=O)cc2)ccc1OCC(=O)N1CCCCC1.Cl | 19.1
42 | COc1cc(C(=O)OCC(=O)Nc2cccc(S(=O)(=O)N3CCCC3)c2)ccc1OCC(C)C | 3.04
43 | c1ccc(Cn2c(Nn3cnnc3)nc3ccccc32)cc1 | -6.13
44 | O=C1NNC(=O)C1c1ccccc1 | 13.7

Row | SMILES | hERG current change (%, negative = inhibition) at 1uM [%]
45 | OCCOc1ccc(CN2CCN(CCCc3ccccc3)C(CCO)C2)cc1 (stereo not shown) | -19.8
46 | O=C(NCc1ccccc1)c1ccc(Cn2cc(C(F)(F)F)ccc2=O)cc1 | -6.19
47 | Cc1ccc(NC(=O)C2CCCN2C(=O)Oc2ccccc2)c(C)c1 (stereo not shown) | 5.98
48 | O=C(COC(=O)c1ccccc1C(=O)c1ccccc1)Nc1cccc([N+](=O)[O-])c1 | 7.97
49 | Cc1nc(CN2CCN(C(=O)NC3(c4ccccc4)CC3)CC2)cs1 | 5.07
50 | C=CCNC(=O)c1onc(CSc2ccccn2)c1C(=O)NCC=C | 6.66
51 | S=C(NCc1cccs1)Nc1ccccc1 | 2.52
52 | CN1CCCN(C(=O)c2ccc(Cl)c(S(=O)(=O)N(C)c3ccccc3)c2)CC1.Cl | 12
53 | O=C(N=C1SC2CS(=O)(=O)CC2N1CCc1ccc(F)cc1)C1CCCCC1 (stereo not shown) | 8.34
54 | CN(C)CCOCCOc1ccccc1-c1ccccc1.O=C(O)C(=O)O | -6.79
55 | CCO.COc1cc(C2C(C#N)=C(N)N(N(C)C)C3=C2C(=O)CC(C)(C)C3)ccc1O (stereo not shown) | 11.4
56 | O=Nc1c(-c2ccccc2)cc2ccccn12 | -1.34
57 | CCN(CC)c1nc2c(c(=O)[nH]c(=O)n2C)n1Cc1ccccc1Cl | 14
58 | CC(C)Sc1nnc2n(CCc3ccccc3)c(=O)c3c4c(sc3n12)COC(C)(C)C4 | 3.92
59 | CN1C(=O)/C(=C\c2ccncc2)SC1=Nc1ccccc1 | 7.79
60 | CC(=O)c1cc2c(cc1NS(=O)(=O)c1ccccc1F)OCO2 | 2.36
61 | CCOc1ccc(-c2ccc(SCC(=O)NC3CCCCC3)nn2)cc1 | 17.9
62 | CCOc1ccc(C(=O)N2CCN(c3ccccn3)CC2)cc1 | 10.1
63 | Cc1ccc(NC2=CC(=O)CCC2)cc1C | 5.54
64 | COc1ccc(/C=N/Nc2nc3ccccc3[nH]2)cc1OC | 4.83
65 | COc1ccc(NC(=O)c2nc(-n3nc(C)cc3C)ccc2Cl)cc1Cl | 9.27
66 | Cc1ccc(NC(=O)N2CCC(NC(=O)C(C)(C)C)CC2)cc1 | 7.65

Row | SMILES | hERG current change (%, negative = inhibition) at 1uM [%]
67 | COc1cc(C)nc(Oc2ccc(OCCOc3ccc(C)cc3)nn2)n1 | 2.57
68 | COCCN(CCOC)c1ncc(Cl)c(C(=O)c2c(C)cc3ccccn23)n1 | -4.84
69 | CCN(CC)C(=S)SCC(=O)Nc1ccc(S(N)(=O)=O)cc1 | 13.7
70 | COc1cc(CNCc2cc(OC)ccc2OC)cc(OC)c1.O=C(O)C(=O)O | 13.3
71 | Cc1ccc(C)c(C(=O)CCC(=O)N2CCN(c3ncccn3)CC2)c1 | 14.1
72 | Cc1ccccc1OCC(=O)N(Cc1cccs1)C1CCS(=O)(=O)C1 (stereo not shown) | -14.9
73 | Cc1cc(=O)[nH]c(N=N/C(=N/Nc2ccccc2C)c2ccccc2)n1 | 2.06
74 | CC(C)(C)c1ccc(CSc2nnc(-c3ccccc3NC(=O)c3ccccc3)o2)cc1 | 6.08
75 | O=C(Nc1ccccc1)C1CCCN1/C=C/C(=O)C(F)(F)F (stereo not shown) | 2.92
76 | O=C(CSc1nnc(-c2ccccc2)n1Cc1ccccc1)N1CCCC1 | 12
77 | Cc1cccc(/C=N/N(CCO)C2=NS(=O)(=O)c3ccccc32)c1 | -2.07
78 | CCn1c(CCCNC(=O)c2ccco2)nc2ccccc21 | 6.64
79 | CCCCOc1ccc(-c2ncc(N)cn2)cc1 | 15
80 | O=C1C=C(N2CCOCC2)CO1 | 21.7
81 | COc1ccc(C)cc1NC(=O)CCC(=O)Nc1ccc2nc(N3CCN(C)CC3)cc(C)c2c1 | -3.63
82 | COc1ccc(CNC(=O)CN(C(=O)c2cc3sccc3n2C)C2CCCC2)cc1 | 5.58
83 | Cc1ccc2[nH]c(C)c(CC(=O)O)c2c1 | 29.7
84 | CCOC(=O)c1sc(NC(=O)CCN2C(=O)C3CCCCC3C2=O)cc1C (stereo not shown) | 6.23
85 | COc1ccc(CNC(=O)CCNS(=O)(=O)c2cc(Br)cnc2N)cc1 | 13.8
86 | CCOC(=O)C1=C(C)N=c2s/c(=C/c3cccc([N+](=O)[O-])c3O)c(=O)n2C1c1ccc(OC)cc1OC (stereo not shown) | 17.6
87 | C#CCNC(=O)C1=C[C@@H](C2CCCCC2)C[C@@H](OCc2ccc(CO)cc2)O1 | 11.2
88 | O=C(Nc1cccc(F)c1)Nc1ccnn1C1CCN(C(=O)CCN2CCCO2)CC1 | -11.4
